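These data come from cells grown in 96-well plates and exposed to compound for 48 hours at five concentrations. GI50 marks 50% less growth.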 Certain results were filed several times, with different values. The other results are left out here. There may be further records. For some of these results: Results that share an entry are repeated measurements in other runs, samples, wells, individuals or studies. A tag in brackets gives the origin of a value. Letters hold for one entry only.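 The concentration for full growth arrest is given as TGI.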 For some of these results: The tests behind the records often covered other concentration ranges, not given here; some values may only mark the edge of a range.
Experiments:
Test in all cases: NCI-60 cell line screen, 48 h
RPMI-8226 leukemia = system: RPMI-8226 leukemia
HCC-2998 colon = system: HCC-2998 colon
SF-539 CNS = system: SF-539 CNS
HCT-116 colon = system: HCT-116 colon
CAKI-1 renal = system: CAKI-1 renal
OVCAR-4 ovarian = system: OVCAR-4 ovarian
HT29 colon = system: HT29 colon
UO-31 renal = system: UO-31 renal
HOP-92 NSCLC = system: HOP-92 NSCLC
MCF7 breast = system: MCF7 breast
NCI/ADR-RES ovarian = system: NCI/ADR-RES ovarian
KM12 colon = system: KM12 colon
NCI-H23 lung = system: NCI-H23 lung
OVCAR-3 ovarian = system: OVCAR-3 ovarian
SK-MEL-2 melanoma = system: SK-MEL-2 melanoma
SNB-19 CNS = system: SNB-19 CNS
K-562 leukemia = system: K-562 leukemia
NCI-H226 lung = system: NCI-H226 lung
SR leukemia = system: SR leukemia
U251 CNS = system: U251 CNS
ACHN renal = system: ACHN renal
MDA-MB-231 breast = system: MDA-MB-231 breast

How did the TGI (RPMI-8226 leukemia) turn out when `COC(=O)c1ccc2c(c1)CCN2C(=O)c1cc2c(cc1Br)OCO2` was run?
The TGI was 3.45 µM and 95 µM.

What about the TGI (HCC-2998 colon) of the same compound?
Its TGI is 4.23 µM and > 100 µM.

And the TGI (SF-539 CNS)?
The TGI was 791 nM and > 100 µM.

What about the TGI (HCT-116 colon) of the same compound?
The TGI was 8.7 µM and > 100 µM.

Which results are given for `Nc1ncnc2c1ncn2C1OC(CO)C(O)C1O` (stereo not drawn)?
GI50 (CAKI-1 renal): 20.6 µM [sample A, mean of 2 tests] and > 100 µM [sample B, 1 test] and 273 µM [sample C, mean of 6 tests]; GI50 (OVCAR-4 ovarian): 27 µM [sample A, mean of 2 tests] and > 100 µM [sample B, 1 test] and > 450 µM [sample C, mean of 5 tests]; GI50 (RPMI-8226 leukemia): 19.9 µM [sample A, mean of 2 tests] and > 100 µM [sample B, 1 test] and 305 µM [sample C, mean of 6 tests]; GI50 (HT29 colon): 3.21 µM [sample A, mean of 2 tests] and > 100 µM [sample B, 1 test] and 288 µM [sample C, mean of 5 tests]; GI50 (UO-31 renal): 19.8 µM [sample A, mean of 2 tests] and > 100 µM [sample B, 1 test] and 376 µM [sample C, mean of 6 tests]; GI50 (HOP-92 NSCLC): 4.95 µM [sample A, mean of 2 tests] and > 100 µM [sample B, 1 test] and 217 µM [sample C, mean of 4 tests]; TGI (HOP-92 NSCLC): 35.3 µM [sample A, mean of 2 tests] and > 100 µM [sample B, 1 test] and > 436 µM [sample C, mean of 4 tests]; GI50 (MCF7 breast): 386 nM [sample A, mean of 2 tests] and 30.4 µM [sample B, 1 test] and 65.1 µM [sample C, mean of 5 tests]; TGI (MCF7 breast): 12.5 µM [sample A, mean of 2 tests] and > 100 µM [sample B, 1 test] and > 435 µM [sample C, mean of 5 tests]; TGI (NCI/ADR-RES ovarian): 28.2 µM [sample A] and > 100 µM [sample B] and > 450 µM [sample C]; GI50 (KM12 colon): 32 µM [sample A, mean of 2 tests] and > 100 µM [sample B, 1 test] and 352 µM [sample C, mean of 6 tests]; TGI (HCC-2998 colon): 5.72 µM [sample A] and > 100 µM [sample B] and 228 µM [sample C]; GI50 (NCI-H23 lung): 18.4 µM [sample A, mean of 2 tests] and > 100 µM [sample B, 1 test] and 227 µM [sample C, mean of 5 tests]; GI50 (OVCAR-3 ovarian): 7.02 µM [sample A, mean of 2 tests] and > 100 µM [sample B, 1 test] and > 419 µM [sample C, mean of 6 tests]; TGI (OVCAR-3 ovarian): 41.9 µM [sample A, mean of 2 tests] and > 100 µM [sample B, 1 test] and > 450 µM [sample C, mean of 6 tests]; GI50 (SK-MEL-2 melanoma): 43.8 µM [sample A, 1 test] and > 450 µM [sample B, mean of 5 tests]; GI50 (SNB-19 CNS): 9.62 µM [sample A, mean of 2 tests] and > 100 µM [sample B, 1 test] and 235 µM [sample C, mean of 5 tests]; GI50 (K-562 leukemia): 1.11 µM [sample A, mean of 2 tests] and > 100 µM [sample B, 1 test] and 361 µM [sample C, mean of 5 tests]

For `O=c1cc(N2CCOCC2)oc2c(-c3ccccc3)cccc12`, which TGI (UO-31 renal) is on record?
Its TGI is 89.2 µM [sample A] and 3.61 µM [sample B].

`CCCCCc1c(C)[nH]c(/C=C2\N=C(c3ccc[nH]3)C=C2Oc2ccc(OC)cc2)c1C` was tested. Which TGI (NCI-H226 lung) did it give?
Its TGI is 645 nM and 6.95 µM.

What about the TGI (SR leukemia) of the same compound?
The TGI was 541 nM and > 100 µM.

What about the TGI (U251 CNS) of the same compound?
The TGI was 1.23 µM and 123 nM.

And the TGI (ACHN renal)?
The TGI was 642 nM and 10.3 µM.

And the TGI (MDA-MB-231 breast)?
The TGI was 1.14 µM and 90.7 nM.

— PubChem BioAssay (NCI)
